Results taken from the supplement of paper PMC3334620.
Over roughly 33,000 sequences, “E-score (-0.5 to 0.5)” has its median near -0.054; the highest 2% begin near 0.35. This is one part of the list.

These sequences were tested against T1, Stb5 (UniProt P38699) (assay: PBM E-score (8-mer binding enrichment) (E-score (-0.5 to 0.5)); higher = stronger / more preferred TF binding; most listed sequences are background and not binding sites). Settings: protein concentration: 200 nM; construct: GST-full length.
T1 sequence: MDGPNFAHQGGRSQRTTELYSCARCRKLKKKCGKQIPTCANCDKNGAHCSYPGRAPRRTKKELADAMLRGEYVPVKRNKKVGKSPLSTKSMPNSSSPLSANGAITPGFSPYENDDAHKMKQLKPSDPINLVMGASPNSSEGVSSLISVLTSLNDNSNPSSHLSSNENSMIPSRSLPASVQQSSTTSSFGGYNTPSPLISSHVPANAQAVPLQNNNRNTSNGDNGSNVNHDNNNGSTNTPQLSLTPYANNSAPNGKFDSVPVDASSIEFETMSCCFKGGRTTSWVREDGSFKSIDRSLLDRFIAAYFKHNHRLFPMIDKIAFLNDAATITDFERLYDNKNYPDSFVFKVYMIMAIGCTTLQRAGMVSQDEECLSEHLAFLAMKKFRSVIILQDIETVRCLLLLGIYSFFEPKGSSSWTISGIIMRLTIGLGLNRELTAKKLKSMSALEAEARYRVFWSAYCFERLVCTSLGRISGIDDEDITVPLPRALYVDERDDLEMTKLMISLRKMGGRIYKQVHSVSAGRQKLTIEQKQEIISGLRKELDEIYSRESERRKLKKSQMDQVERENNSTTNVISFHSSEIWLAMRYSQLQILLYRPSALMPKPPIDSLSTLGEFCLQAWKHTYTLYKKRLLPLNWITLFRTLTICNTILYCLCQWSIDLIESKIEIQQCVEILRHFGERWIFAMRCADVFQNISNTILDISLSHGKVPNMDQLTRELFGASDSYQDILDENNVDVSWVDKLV
Procedure: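 Universal 'all 10-mer' protein binding microarrays (Agilent AMADID 015681) probed with GST-tagged S. cerevisiae TFs (full-length or DBD) made by in vitro transcription/translation (PURExpress), about 100-200 nM. Bound TF was detected with fluorescent anti-GST. Each ungapped 8-mer (which stands for itself and its reverse complement) is scored by the PBM enrichment score (E-score), a modified Wilcoxon-Mann-Whitney statistic from -0.5 to +0.5, computed with the Universal PBM Analysis Suite. Scale: above 0.35 generally sequence-specific binding.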

Sequence | PBM E-score
AATGTTAG | -0.142
GCTCCTGA | 0.0759
CACAAGCG | -0.0542
GAGAGAAC | -0.166
ACTGGAAT | -0.179
CGCAGGGC | 0.0595
CGGAATAG | 0.108
TATCTTCA | -0.256
CGGTTGCC | 0.00076
TAACAATA | 0.058
CAGTGTAC | -0.207
ACGGCCAC | 0.0882
ATGGTTGA | -0.174
CACAACTA | -0.0345
CTCACAAA | -0.111
CGCGTGGC | -0.0237
AATTCAGG | -0.129
GGTGCTAA | 0.358
AATCAATG | -0.0889
AATCTACG | -0.12
GTGTGAGA | -0.0818
CCTTTATC | 0.0781
CTCCCAGC | -0.254
TAAGGATA | -0.123
ATTATTCA | 0.0277

Sequence | PBM E-score
CATTTTGA | -0.218
CGCTTAAA | 0.123
CGACCCCG | 0.306
AGACTACG | -0.125
GCATACAC | -0.115
AAATATAG | -0.0318
GAGGCTCA | -0.116
CGCACCCC | 0.137
TAACAGAA | -0.191
TTAGCCAA | -0.153
CCGGGTAG | -0.0921
CGTTCGCA | -0.109
CGTAACGA | -0.149
ACTGCGGC | 0.168
GCTGGGAA | -0.00896
ATCTCTCA | -0.107
TAAGTGTA | -0.291
ATAAGCAT | 0.114
CAGGTGGG | -0.261
CAAGATAC | -0.116
ATGGAAGA | -0.177
ATGTATAA | -0.0764
AAGCGATG | -0.0499
GGAGATTA | 0.287
GAAAACAA | -0.11

Sequence | PBM E-score
TGGGCCAA | -0.138
CATTACGC | 0.146
ATGTGGGC | 0.089
CACAGCTA | -0.125
ACGGACGG | 0.212
CGATAGGA | 0.108
GCTCCAGA | -0.201
AATCCCAC | -0.0963
CGTCGCCC | 0.0497
CCCCAGCC | -0.163
AATCCTCC | 0.154
ACGGCTGA | -0.134
CCTTCTTC | -0.17
AGCGACAC | -0.078
AACTGTCG | -0.0119
AGCCGACA | 0.198
CTATCTCC | 0.235
CGGTGATC | 0.279
TGAACGCA | -0.195
AATCTTCG | -0.0852
AGGCTCAC | -0.213
AGCATTTC | -0.135
CACTTAAA | -0.0235
CTTCGGAA | 0.215
ATACTTCG | -0.0376

Sequence | PBM E-score
GACCCCCC | -0.259
TAAAAGCA | -0.039
AGGCCACC | -0.188
TCTTGGAA | -0.101
AGAATAAT | -0.0609
GATCTTGA | -0.0767
CCAACAAC | -0.113
AAGCGCCG | 0.396
GGACGAAA | 0.0804
CCTCTACA | -0.192
AAAGTTGA | -0.198
ATGTTTGG | -0.144
ATACTAAT | -0.0636
GCATTGGA | -0.0175
GCCATGCC | -0.0299
GAAGGGTA | -0.0478
CATAATAC | -0.0653
ATTCTAGC | -0.193
CAGATATG | -0.0209
TCAAAGAA | -0.165
GTGGGTTA | -0.0789
ATCACAAC | 0.044
GTACATAC | -0.0452
AGAGCCTA | -0.296
AGCGCCGA | 0.342

Sequence | PBM E-score
TCTGCAAA | -0.0584
GCAATAGA | -0.12
AACACGTT | -0.108
ATGCTATA | -0.0523
AAGAAATA | -0.123
CTCCTTTA | -0.0841
GCTCCACA | -0.113
GAAAAAGC | 0.137
CAACTGAC | -0.0534
ACGAAAAG | 0.0446
ATACAATG | -0.0364
GGGGCACC | 0.103
AACATGGC | -0.178
AATGGGAA | -0.284
AAGAAGAT | -0.178
CGGTGAAA | 0.41
AAAGTAAA | -0.0754
ATTGCATC | -0.128
ATGAGTAA | -0.0997
AGAAAGTG | -0.168
CTTTTCCC | 0.117
AGCTGAGC | -0.102
CTGCGATC | -0.132
AAAGGCAT | -0.0751
AATCCTTG | -0.14

Sequence | PBM E-score
GGAGGCGA | -0.11
ATTTGCTG | -0.0919
TCGCCAAA | -0.248
CCTCATTA | -0.134
AAGTCAAC | -0.345
CAGCGACC | 0.129
AATATCAC | 0.194
AGTTCTCG | -0.209
ATACTTCA | -0.217
ATCCCCGA | 0.374
CAATAAGA | -0.109
ACGGCTCT | 0.155
ATCTTAAA | -0.119
CCTTGCTA | -0.176
GAGCCCCC | -0.149
CAAGCGGA | 0.223
ATCTTAAG | 0.0557
CTTAACTA | -0.0837
CTAGTGAG | -0.114
CGTCTGAC | -0.00438
CAGGTGGA | -0.22
TGTAACAA | -0.111
ATTCTCAG | -0.187
ATCAGAAA | -0.194
AACGCCCC | 0.0885

Sequence | PBM E-score
ACTTTCAT | -0.0247
AATAGGGC | 0.0206
CAGAACGA | -0.18
CATAGGAC | -0.108
AGATCGCC | -0.132
GGGGAAAA | 0.191
AGAAACCA | -0.212
ATCCTAGC | -0.179
CGGCTGCA | 0.161
GTTCTACA | -0.00541
ACCTAAAC | 0.0352
CCCATACA | -0.324
ATGCCTGG | -0.109
ACTTGCAT | 0.0144
GCTACGTA | -0.0756
ATTGCAGC | -0.051
ACAGCGGG | 0.332
CGACCTAA | 0.017
CGAGTCTC | -0.227
GTTTATAA | 0.235
ACCCGTGC | -0.0288
CATAGTCA | -0.28
